The text below walks through data of PubChem BioAssay AID2551 (National Center for Advancing Translational Sciences (NCATS), 2010).

Hit rate of the full screen: of about 310,000 compounds, about 17,000 (5.5%) were called active. About 11% were inconclusive and are not listed. The call rests on the fitted dose curve; in most records, active means well fitted inhibition curve with a large enough effect; inconclusive means small, poorly fitted or top-dose-only effect, or effect the other way; inactive means no such curve, though single readings can be large or run the other way. The list shows a part of the results, in another mix than the full data. The source holds several records for some structures; these can differ, active in one and inactive in another.
On the % scale 0 is the no-effect control and ±100 the full control effect; potency means the concentration at half of the fitted maximal effect.

Chain of UniProt P51450 (P51450 whole entry, looked up, the tested form may be a part): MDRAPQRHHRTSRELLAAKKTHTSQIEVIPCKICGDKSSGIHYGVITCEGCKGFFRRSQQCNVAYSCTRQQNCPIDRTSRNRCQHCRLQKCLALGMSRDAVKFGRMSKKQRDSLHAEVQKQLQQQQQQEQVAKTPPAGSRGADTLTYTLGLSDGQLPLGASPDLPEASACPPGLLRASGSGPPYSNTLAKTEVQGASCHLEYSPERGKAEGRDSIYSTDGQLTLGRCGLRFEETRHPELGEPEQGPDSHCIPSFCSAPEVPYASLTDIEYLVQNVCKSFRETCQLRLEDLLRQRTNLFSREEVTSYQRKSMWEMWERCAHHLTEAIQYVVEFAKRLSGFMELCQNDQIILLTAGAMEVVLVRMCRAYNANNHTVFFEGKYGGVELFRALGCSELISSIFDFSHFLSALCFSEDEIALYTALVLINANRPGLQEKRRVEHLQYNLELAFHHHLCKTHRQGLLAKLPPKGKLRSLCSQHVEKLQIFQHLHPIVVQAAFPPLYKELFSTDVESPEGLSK

The target of the experiment is Nuclear receptor ROR-gamma (Mus musculus) (UniProt P51450). Nature of the experiment: qHTS for inhibitors of ROR gamma transcriptional activity. Further: nearly all actives have a fitted effect of over 60% in size. The note with it: Drosophila S2 Gal4-RORgamma UAS-luciferase reporter, 20 h; series mostly up to 53.6 µM; activity change, negative = inhibition: at the top concentration. The source says:
NIH Molecular Libraries Probe Production Network [MLPCN] NIH Chemical Genomics Center [NCGC] MLPCN Grant: R03 DA026211-01 Assay Provider: Dan Littman, New York University Assay Overview: The retinoic acid-related orphan receptor (ROR) gamma is a transcription factor that has a central role in the differentiation of Th17 cells, a subset of T helper cells that secrete the inflammatory cytokines IL-17, IL-17F, and IL-22. Th17 cells have been implicated in graft versus host disease, autoimmune disease and asthma. ROR gamma is induced in naive T helper cells in the presence of TGF-beta combined with IL-6, IL-21, or IL-23, and thereafter directs the expression of the Th17 lineage cytokines. To study the mechanism of action of ROR gamma, an insect cell-based assay was screened. This Drosophila Schneider cell line was stably transfected with two vectors: a gene expressing a fusion of the Gal4 DNA binding domain and ROR gamma transactivation domain under the control of the metallothionine promoter and a Photinus luciferase reporter regulated by the Gal4 binding site enhancer, UAS. […] Small molecule inhibitors of ROR gamma activity are detected by a decrease in luciferase reporter activity.
Assay Protocol Summary: For screening, 600 cells in 4 uL/well were dispensed into white solid 1536-well plates (Grenier) using a solenoid-based dispenser. Following transfer of 23 nL compound or DMSO vehicle by a pin tool, the plates were incubated 1 hr at ambient temperature, and 1 uL/well copper sulfate (700 uM final concentration) was added. The plates were centrifuged 15 s at 1000 RPM and incubated 20 hr at ambient temperature. After addition of 1.5 uL Photinus luciferase detection reagent, the plates were incubated 10 min at ambient temperature and then read by an ViewLux (Perkin Elmer) to detect luminescence. Keywords: NIH Roadmap, MLPCN, MLI, MLSMR, qHTS, NCGC, qHTS, nuclear hormone receptor, retinoic acid-related orphan receptor, ROR gamma
Consider `COc1cccc(C2=CC(c3cccc(OC)c3OC)n3nnnc3N2)c1` (stereo not given), for which the Potency was active: 3.16 µM. Still for that read-out and setting: the value for `CSc1ccc2c(c1)C(N1CCN(C)CC1)Cc1ccccc1S2` (stereo not given) was “inactive”. For `O=C(C1=C[C@H](c2coc3ccccc3c2=O)C[C@H](OCCCCO)O1)N1CCOCC1`, the “activity change, negative = inhibition” value is inactive: 25.5%.

Turning to `Cc1oncc1C(=O)Nc1ccc(C(F)(F)F)cc1`, the Potency result is “inactive”.

For the compound `Cc1cc(NC(=O)Nc2ccc(N(C)C)cc2)c2cc(F)cc(F)c2n1`, the “activity change, negative = inhibition” value was inactive: 18.6%. Same read-out and setting: the value for `CCCCC(=O)O[C@@]1(C(=O)CO)C(C)CC2C3CCC4=CC(=O)C=C[C@@]4(C)[C@]3(F)C(O)C[C@]21C` (stereo not given in full) was inactive: -35.5%; that for `Clc1ccc(Cn2c(CN3CCCC3)nc3ccccc32)cc1` was inactive: -25.5% [at 2.98 µM]; that for `O=C1/C(=C/c2cccs2)SC(=S)N1C1CCS(=O)(=O)C1` (stereo not given) was inactive: -11.4%. Same read-out and setting: the value for `COc1ccc(Br)cc1[C@H]1[C@@H]2C=CCC[C@@]2(C)C(=O)N1Cc1ccccc1` was inactive: 20.3%. Regarding `O=C(N/N=C/c1ccc(Br)s1)c1ccccc1[N+](=O)[O-]`, the Potency was active: 2.51 µM.

Take `CCCCCCCCCCCCCCCC(O)C(N)CO` (stereo not given): the “activity change, negative = inhibition” value was inactive: 18.2%. For the compound `Cc1ccc(Nc2nc3ccccc3c(=O)s2)cc1`, the Potency was active: 6.31 µM. Still for that read-out and setting: the value for `CNc1nc2ccccc2n1/N=C/c1cccc(OC)c1OC` was active: 12.6 µM. Regarding `CCOC(=O)[C@@H]1[C@H]2COc3ccccc3[C@H]2N2C(=O)N(c3ccccc3)C(=O)[C@]12C`, the “activity change, negative = inhibition” value is inactive: -1.93%. Still for that read-out and setting: the value for `COC(=O)[C@@]1(Cc2ccc(F)cc2)[C@H]2c3cc(C(=O)N4CCCC4)n(CCc4ccccn4)c3C[C@H]2CN1C(=O)c1ccccc1` was inactive: 36.9%; that for `O=C(O)/C(=C1/OC(=O)c2ccccc21)c1ccccc1` was inactive: -30.1%; that for `O=C(O)c1cccc(-n2cccc2/C=C/[N+](=O)[O-])c1` was inactive: 21.3%.

Turning to `C[C@]12CC[C@@H]3c4ccc(O)cc4CC[C@H]3[C@@H]1CC[C@@H]2O`, the Potency entry is “inactive”. On the same count and under the same terms, next, `Oc1cccc(C=Nc2cccc3ccccc23)c1O`: active: 11.2 µM; `Cc1ccc(NC(=O)CCC(=O)N/N=C/c2cc([N+](=O)[O-])ccc2O)cc1`: active: 12.6 µM; `CCc1ccc(C(=O)Nc2nc3ccccc3[nH]2)cc1`: active: 2.24 µM. Regarding `O=C(N/N=C\c1ccncc1)c1ccccc1O`, the Potency was active: 11.2 µM.

Turning to `CCC(C)c1ccc(NC(=S)Nc2ccc(OC)cc2)cc1` (stereo not given), the Potency was active: 7.08 µM.

As to `C(=N\Nc1nc2ccccc2[nH]1)/c1ccc2c(c1)OCO2`, the Potency was active: 12.6 µM. For `Cc1c(C(=O)c2no[n+]([O-])c2C(=O)c2cnn(C)c2C)cnn1C`, the Potency was active: 10 µM. Take `CC1=CC(C)=Nc2ccc(C)cc2N1`: the “activity change, negative = inhibition” value is inactive: 35.4%. Regarding `Cc1ccc(C(=O)ONc2ccc(N=O)cc2)cc1`, the Potency is active: 25.1 µM. Regarding `CNCCCC12CCC(c3ccccc31)c1ccccc12`, the Potency entry is “inactive”.

Take `CC(Sc1ccc2ccccc2n1)C(=O)O` (stereo not given): the “activity change, negative = inhibition” value is inactive: -14.8%. As to `CCc1ccccc1NC(=S)/N=C(\N)Nc1nc(C)c2cc(C)ccc2n1`, the Potency is active: 2.82 µM. As for `COc1cc2nc(N3CCN(C(=O)[C@@H]4CCCO4)CC3)nc(N)c2cc1OC`, the “activity change, negative = inhibition” value is inactive: -2.58% [at 16.9 µM]. With `CC(Oc1ccc(Cl)cc1)C(=O)N/N=C/c1ccsc1` (stereo not given), the Potency is active: 11.2 µM.

Take `CCOc1ccc(/C=C2\SC(=S)N(CCC(=O)Nc3ccc(C(=O)O)cc3)C2=O)cc1`: the “activity change, negative = inhibition” value was inactive: 11.2%. In the case of `CCCCCC(O)c1cccc(OCc2ccc3ccccc3n2)c1` (stereo not given), the “activity change, negative = inhibition” value is inactive: 19.7%. On the same count and under the same terms, the value for `CC(=O)OCC1OC(C#CC(C)(C)C)C=CC1OC(C)=O` (stereo not given) was inactive: 23.9% [at 10 µM]; that for `c1ccc(C2[C@H]3CN(Cc4cccnc4)[C@H](c4ccccc4)C34CC2(c2cccnc2)C4)cc1` (stereo not given in full) was inactive: -48.1%.

With `COc1ccc(C2/C=C\CN(C(=O)c3ccc(C)cc3)C(Cc3ccccc3)C(=O)N2Cc2ccc(F)cc2)cc1` (stereo not given), the “activity change, negative = inhibition” value was inactive: -39.5%.

Consider `O=c1c2c(-c3ccccc3)csc2ncn1/N=C/c1cccc([N+](=O)[O-])c1O`, for which the Potency was active: 20 µM. In the case of `COC(=O)[C@@H]1CC[C@H](C)[C@@H](c2ccc(C)cc2)N1C(=O)c1ccc(/C=N\OC[C@@H](O)COCc2ccco2)cc1`, the activity change, negative = inhibition was inactive: 18.3% [at 10 µM]. In the case of `NC(=NCCCCCCN=C(N)/N=C(\N)Nc1ccc(Cl)cc1)/N=C(\N)Nc1ccc(Cl)cc1`, the Potency entry was “inactive”. Still for that read-out and setting: next, `C/C(=N\NC(=S)Nc1c(C)cccc1C)c1ccc(OC(F)F)cc1`: active: 3.16 µM.

Take `COc1ccc(NC(=O)OCCN2CCN(Cc3ccccc3)CCC2=O)cc1`: the “activity change, negative = inhibition” value is inactive: 14%. The same measure, in the same setting: next, `C[C@@]12CC[C@@H]3c4ccc(O)cc4CC[C@H]3[C@H]1CC[C@H]2O`: inactive: -29.1% [at 16.9 µM]. With `CCOc1ccc(NC(=S)N2CCN(C/C=C/c3ccccc3)CC2)cc1`, the Potency is active: 14.1 µM.

As to `COc1ccc2c(c1)O[C@@H](c1cccc(C(F)(F)F)c1)[C@H](O)C2=O`, the “activity change, negative = inhibition” value is inactive: -9.23%.
